Test results reported in ChEMBL document CHEMBL3585320, “Natural Product Primary Sulfonamides and Primary Sulfamates” (J Nat Prod, 2015).

Tests used:
[1] = Cytotoxicity against mouse invasive mammary carcinoma cells assessed as growth inhibition after 48 hrs by coulter counter analysis; format: functional, cell-based
Tetranychus urticae = experiment: Acaricidal activity against Tetranychus urticae infected on kidney bean leaves assessed as prevention of infection at 10 ppm after 14 days by green house pot test relative to control; format: functional
[2] = Acute toxicity in iv dose mouse; format: organism-based; details: in vivo
L1210 = experiment: Cytotoxicity against mouse L1210 cells assessed as growth inhibition after 48 hrs by coulter counter analysis; format: functional, cell-based; details: L1210, 48 h
[3] = Toxicity in brine shrimp after 48 hrs; format: ADME, organism-based; details: artemia salina, in vivo
Streptococcus pyogenes = experiment: Antibacterial activity against Streptococcus pyogenes; format: functional
[4] = Antibacterial activity against Xanthomonas citri; format: functional

`CN1C=C(C(N)=O)[C@@H]2C[C@H](O)[C@@](NC(=O)CS(N)(=O)=O)(C(=O)O)[C@@H]2C1` gave an IC50 [1] of 2120 nM, an Activity (Tetranychus urticae) of 50% and an LD50 [2] of 0.3 mg/kg. The IC50 (L1210) was 2120 nM and the LC50 at 48 h [3] was 3 µg/mL (≈ 7.97 µM).

Compound `Nc1nc(Br)nc2c1ncn2[C@@H]1O[C@H](COS(N)(=O)=O)[C@@H](O)[C@H]1O` has an MIC (Streptococcus pyogenes) of 0.2 µg/mL (≈ 0.47 µM).

`C[C@H](N)C(=O)NS(=O)(=O)OC[C@H]1O[C@@H](n2cnc3c(N)nc(Cl)nc32)[C@H](O)[C@@H]1O` showed an MIC [4] of 0.4 µg/mL (≈ 0.885 µM).

Values after ≈ are worked out from the molar mass of the structure shown.
